# From publication PMC9559116
# Chains of the proteins cited; added tags and fusions are not shown. Lines headed by an entry give the natural chain unless they say otherwise; changes in a name come on top. Residues count along the entry.
# UniProt Q9NVM9: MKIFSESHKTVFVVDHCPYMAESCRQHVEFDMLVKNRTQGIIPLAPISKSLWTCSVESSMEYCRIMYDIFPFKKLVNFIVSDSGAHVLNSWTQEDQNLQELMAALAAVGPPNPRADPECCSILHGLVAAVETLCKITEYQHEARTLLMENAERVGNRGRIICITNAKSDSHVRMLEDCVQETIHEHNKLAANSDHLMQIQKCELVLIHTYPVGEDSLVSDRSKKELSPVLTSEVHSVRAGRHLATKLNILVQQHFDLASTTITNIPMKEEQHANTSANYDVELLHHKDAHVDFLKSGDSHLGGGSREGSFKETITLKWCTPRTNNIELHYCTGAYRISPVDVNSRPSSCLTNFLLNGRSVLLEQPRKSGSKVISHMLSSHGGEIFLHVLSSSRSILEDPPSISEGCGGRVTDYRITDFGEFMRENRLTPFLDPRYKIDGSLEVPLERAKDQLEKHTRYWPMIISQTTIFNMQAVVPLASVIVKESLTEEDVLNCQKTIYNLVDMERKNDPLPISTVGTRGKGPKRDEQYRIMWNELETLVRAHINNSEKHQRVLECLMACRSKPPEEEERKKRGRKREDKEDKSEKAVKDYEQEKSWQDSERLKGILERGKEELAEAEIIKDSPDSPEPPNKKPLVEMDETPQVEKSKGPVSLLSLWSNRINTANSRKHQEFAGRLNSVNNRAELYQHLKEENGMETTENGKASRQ
# INTS13 C-terminal region, amino acids 501-706, Gal4 activation domain fusion: residues 501-706 of Q9NVM9
# INTS13 amino acids 577-706, Gal4 activation domain fusion: residues 577-706 of Q9NVM9
# UniProt Q96SY0: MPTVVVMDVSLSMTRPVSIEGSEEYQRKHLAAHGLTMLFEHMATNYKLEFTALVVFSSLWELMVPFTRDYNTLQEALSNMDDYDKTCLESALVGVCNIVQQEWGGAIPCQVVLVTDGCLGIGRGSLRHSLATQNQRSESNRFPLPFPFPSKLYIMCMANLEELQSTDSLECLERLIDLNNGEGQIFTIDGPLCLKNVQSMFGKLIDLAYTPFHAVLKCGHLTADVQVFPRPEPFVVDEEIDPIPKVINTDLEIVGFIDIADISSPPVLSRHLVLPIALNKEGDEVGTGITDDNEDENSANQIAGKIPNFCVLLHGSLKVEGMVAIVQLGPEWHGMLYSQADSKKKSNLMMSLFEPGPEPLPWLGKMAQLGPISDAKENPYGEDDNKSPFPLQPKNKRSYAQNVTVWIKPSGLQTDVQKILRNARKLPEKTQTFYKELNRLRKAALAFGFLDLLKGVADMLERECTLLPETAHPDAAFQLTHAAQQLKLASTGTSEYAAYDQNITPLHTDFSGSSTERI
# UniProt Q96HW7: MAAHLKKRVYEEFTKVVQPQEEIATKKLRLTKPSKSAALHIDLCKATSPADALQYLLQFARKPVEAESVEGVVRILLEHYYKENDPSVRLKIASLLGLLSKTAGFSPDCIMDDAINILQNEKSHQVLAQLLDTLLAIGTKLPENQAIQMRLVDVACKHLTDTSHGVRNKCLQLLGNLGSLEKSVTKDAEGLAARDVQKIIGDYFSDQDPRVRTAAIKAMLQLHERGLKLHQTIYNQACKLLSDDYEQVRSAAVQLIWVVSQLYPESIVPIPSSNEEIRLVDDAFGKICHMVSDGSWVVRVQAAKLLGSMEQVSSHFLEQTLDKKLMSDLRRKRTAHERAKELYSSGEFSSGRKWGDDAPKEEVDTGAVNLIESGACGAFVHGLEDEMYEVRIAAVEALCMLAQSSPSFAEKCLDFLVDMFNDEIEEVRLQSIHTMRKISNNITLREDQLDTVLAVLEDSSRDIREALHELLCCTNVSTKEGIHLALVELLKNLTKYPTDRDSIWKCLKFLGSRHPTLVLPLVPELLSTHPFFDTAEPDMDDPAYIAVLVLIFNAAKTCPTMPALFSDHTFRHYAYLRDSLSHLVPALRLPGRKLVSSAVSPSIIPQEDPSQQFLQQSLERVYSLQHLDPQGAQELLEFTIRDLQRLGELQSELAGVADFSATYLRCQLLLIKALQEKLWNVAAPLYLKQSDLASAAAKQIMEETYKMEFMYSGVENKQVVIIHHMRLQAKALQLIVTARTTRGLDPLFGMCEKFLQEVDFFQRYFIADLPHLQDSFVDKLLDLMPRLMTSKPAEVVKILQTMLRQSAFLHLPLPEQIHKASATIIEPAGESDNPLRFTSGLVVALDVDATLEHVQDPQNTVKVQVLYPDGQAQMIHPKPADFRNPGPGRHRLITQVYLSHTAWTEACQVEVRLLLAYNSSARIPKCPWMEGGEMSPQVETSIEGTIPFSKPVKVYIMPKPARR
# UniProt Q9NV88: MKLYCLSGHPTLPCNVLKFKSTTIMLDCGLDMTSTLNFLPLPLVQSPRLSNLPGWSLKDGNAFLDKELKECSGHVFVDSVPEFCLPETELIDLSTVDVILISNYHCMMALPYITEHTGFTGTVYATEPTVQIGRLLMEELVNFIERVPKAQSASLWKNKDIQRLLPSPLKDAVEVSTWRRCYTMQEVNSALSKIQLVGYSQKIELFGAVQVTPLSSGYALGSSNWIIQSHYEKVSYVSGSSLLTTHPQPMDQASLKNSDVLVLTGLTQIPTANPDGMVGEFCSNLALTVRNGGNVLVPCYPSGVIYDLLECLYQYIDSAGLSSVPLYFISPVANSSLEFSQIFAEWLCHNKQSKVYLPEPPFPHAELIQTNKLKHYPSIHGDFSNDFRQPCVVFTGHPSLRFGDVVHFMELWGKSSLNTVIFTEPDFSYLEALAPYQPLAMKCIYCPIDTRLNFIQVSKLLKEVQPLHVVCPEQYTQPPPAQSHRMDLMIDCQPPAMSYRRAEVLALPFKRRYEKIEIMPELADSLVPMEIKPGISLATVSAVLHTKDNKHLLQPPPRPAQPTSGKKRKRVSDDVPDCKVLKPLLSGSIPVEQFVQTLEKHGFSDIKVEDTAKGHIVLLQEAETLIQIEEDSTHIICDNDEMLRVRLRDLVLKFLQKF
# UniProt Q5TA45: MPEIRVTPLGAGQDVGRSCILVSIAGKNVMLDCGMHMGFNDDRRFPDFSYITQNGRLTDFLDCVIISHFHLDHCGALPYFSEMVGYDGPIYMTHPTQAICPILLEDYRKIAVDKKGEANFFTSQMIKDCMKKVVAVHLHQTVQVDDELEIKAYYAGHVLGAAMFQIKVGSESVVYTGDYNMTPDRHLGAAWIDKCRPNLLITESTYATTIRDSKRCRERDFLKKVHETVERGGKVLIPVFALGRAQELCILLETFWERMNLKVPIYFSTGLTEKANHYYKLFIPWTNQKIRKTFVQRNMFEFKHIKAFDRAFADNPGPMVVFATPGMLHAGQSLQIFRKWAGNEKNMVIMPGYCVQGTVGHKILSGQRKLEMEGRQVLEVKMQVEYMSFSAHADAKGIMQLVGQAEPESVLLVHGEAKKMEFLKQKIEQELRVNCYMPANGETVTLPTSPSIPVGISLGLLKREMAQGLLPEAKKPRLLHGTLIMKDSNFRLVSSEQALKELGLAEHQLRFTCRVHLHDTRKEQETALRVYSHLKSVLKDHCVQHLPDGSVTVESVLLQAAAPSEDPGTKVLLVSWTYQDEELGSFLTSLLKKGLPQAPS
# UniProt Q9UL03: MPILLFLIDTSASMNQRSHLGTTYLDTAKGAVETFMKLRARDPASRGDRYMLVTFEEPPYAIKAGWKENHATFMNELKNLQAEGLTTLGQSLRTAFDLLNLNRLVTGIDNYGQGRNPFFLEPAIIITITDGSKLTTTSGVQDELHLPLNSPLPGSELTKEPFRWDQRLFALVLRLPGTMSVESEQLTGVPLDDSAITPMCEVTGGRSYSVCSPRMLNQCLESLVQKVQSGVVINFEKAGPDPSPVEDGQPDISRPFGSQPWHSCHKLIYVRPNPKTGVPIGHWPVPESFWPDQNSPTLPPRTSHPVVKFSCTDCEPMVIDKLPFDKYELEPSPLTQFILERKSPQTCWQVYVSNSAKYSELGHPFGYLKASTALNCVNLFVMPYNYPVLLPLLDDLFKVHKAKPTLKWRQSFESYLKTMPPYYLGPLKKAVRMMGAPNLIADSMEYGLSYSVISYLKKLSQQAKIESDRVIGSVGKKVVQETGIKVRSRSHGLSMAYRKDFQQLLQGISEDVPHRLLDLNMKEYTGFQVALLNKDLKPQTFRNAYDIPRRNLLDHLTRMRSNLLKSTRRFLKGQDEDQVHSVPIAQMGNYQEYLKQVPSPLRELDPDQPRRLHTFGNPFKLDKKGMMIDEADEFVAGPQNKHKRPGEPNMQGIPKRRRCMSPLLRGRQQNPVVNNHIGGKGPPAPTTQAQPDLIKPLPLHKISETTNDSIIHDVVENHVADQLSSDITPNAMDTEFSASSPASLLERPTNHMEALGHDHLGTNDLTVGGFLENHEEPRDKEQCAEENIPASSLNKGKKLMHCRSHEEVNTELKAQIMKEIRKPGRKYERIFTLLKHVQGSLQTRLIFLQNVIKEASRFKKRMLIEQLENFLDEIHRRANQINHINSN
# UniProt Q75QN2: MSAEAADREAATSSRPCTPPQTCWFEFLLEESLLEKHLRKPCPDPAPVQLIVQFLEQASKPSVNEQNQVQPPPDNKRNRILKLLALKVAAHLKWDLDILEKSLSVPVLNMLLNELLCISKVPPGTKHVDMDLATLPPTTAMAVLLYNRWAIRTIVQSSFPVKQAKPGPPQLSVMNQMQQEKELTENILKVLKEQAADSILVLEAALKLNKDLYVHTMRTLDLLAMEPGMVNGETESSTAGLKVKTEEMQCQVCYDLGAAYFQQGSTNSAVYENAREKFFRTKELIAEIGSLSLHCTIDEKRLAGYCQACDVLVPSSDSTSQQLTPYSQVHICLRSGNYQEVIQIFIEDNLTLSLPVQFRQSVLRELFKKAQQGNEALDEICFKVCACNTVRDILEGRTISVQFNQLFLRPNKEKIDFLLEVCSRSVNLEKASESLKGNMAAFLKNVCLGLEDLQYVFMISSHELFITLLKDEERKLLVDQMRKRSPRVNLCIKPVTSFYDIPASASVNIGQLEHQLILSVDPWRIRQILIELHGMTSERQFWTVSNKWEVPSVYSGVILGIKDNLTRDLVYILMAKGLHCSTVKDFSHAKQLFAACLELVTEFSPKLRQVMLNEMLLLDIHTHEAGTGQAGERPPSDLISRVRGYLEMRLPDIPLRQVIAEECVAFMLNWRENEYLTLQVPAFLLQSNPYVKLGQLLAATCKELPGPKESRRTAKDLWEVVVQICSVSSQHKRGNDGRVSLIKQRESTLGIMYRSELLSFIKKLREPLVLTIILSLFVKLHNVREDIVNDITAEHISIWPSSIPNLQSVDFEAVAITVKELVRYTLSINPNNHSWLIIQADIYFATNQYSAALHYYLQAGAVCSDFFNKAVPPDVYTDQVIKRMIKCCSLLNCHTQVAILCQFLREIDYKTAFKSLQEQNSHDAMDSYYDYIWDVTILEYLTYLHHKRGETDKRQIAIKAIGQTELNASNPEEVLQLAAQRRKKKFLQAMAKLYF
# UniProt Q68E01: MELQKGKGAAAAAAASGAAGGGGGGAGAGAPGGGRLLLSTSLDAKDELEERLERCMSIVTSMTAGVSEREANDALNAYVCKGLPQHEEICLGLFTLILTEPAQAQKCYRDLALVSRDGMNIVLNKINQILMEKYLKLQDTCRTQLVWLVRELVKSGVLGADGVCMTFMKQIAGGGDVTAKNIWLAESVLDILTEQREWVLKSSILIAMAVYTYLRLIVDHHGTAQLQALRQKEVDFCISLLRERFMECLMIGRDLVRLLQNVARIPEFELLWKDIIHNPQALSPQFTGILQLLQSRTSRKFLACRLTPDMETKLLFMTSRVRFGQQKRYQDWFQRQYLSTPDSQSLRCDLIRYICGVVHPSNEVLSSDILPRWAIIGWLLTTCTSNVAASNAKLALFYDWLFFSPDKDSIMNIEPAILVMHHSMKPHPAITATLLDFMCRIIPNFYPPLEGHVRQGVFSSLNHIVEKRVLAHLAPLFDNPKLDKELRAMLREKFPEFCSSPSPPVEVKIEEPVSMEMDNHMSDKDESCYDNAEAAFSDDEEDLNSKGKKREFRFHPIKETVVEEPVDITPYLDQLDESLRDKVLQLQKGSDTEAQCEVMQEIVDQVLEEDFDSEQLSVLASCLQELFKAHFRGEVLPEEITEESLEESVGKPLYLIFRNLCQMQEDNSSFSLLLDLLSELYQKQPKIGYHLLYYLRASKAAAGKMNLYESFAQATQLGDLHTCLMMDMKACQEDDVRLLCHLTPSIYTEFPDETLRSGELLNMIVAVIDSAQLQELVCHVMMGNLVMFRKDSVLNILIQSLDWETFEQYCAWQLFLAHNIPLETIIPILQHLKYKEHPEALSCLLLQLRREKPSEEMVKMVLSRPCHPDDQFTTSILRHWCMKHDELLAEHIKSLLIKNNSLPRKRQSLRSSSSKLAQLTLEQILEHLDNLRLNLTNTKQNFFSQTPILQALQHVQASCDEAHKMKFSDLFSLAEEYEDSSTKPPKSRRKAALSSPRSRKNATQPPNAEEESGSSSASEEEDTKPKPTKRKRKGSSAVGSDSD
# These are yes or no findings as the source states them, for the method shown. Some binding calls cover weakened binding; strength is not graded here.
# Tests used:
# [1] = biological target: Integrator subunit 13 (INTS13), full length, Gal4 fusion (human) (UniProt Q9NVM9); assay: two-hybrid; pairwise: INTS13 fused to the Gal4 DNA-binding domain mated with strains expressing each individual Integrator subunit fused to the Gal4 activation domain; medium lacking histidine with 1 mM 3AT (Fig. 3a, left)
# [2] = biological target: Integrator subunit 14 (INTS14), Gal4 fusion (human) (UniProt Q96SY0); assay: two-hybrid; pairwise: INTS14 fused to the Gal4 DNA-binding domain against each of the other Integrator subunits fused to the activation domain (Supplementary Fig. 3b, left)
# [3] = biological target: His-tagged full-length human INTS4 (insect cells) (human) (UniProt Q96HW7); assay: pull-down + SEC; four proteins co-expressed in High Five cells; nickel affinity by His-INTS4, then Superdex 200 gel filtration in 20 mM Tris pH 8.0, 250 mM NaCl, 5 mM DTT; fractions on SDS-PAGE; both purified
# [4] = biological target: INTS4/9/11 heterotrimer (Integrator Cleavage Module), co-expressed in yeast (human) (UniProt Q96HW7+Q9NV88+Q5TA45); assay: two-hybrid; modified: INTS13 (wild type, fragments or patient mutants) fused to the Gal4 activation domain against co-expressed INTS4/9/11 (wild type or point mutants); medium lacking histidine with 3AT (Fig. 3b, 3d; Supplementary Fig. 2c)
Substance,binding [1],binding [2],binding [3],binding [4]
"Integrator subunit 6 (INTS6), Gal4 activation domain fusion (from UniProt Q9UL03 1-887)",no binding,no binding,–,–
untagged full-length human INTS9 (insect cells) (from UniProt Q9NV88 1-658),–,–,binds,–
"Integrator subunit 8 (INTS8), Gal4 activation domain fusion (from UniProt Q75QN2 1-995)",no binding,no binding,–,–
"Integrator subunit 9 (INTS9), Gal4 fusion (from UniProt Q9NV88 1-658)",–,no binding,–,–
"INTS13 C-terminal region, amino acids 501-706, Gal4 activation domain fusion (from UniProt Q9NVM9-1 501-706) (domain or fragment)",–,–,–,binds
"Integrator subunit 5 (INTS5), Gal4 activation domain fusion (from UniProt Q6P9B9 1-1019)",no binding,no binding,–,–
"INTS13 Family 2 mutant (p.S652L), Gal4 activation domain fusion (from UniProt Q9NVM9-1 1-706)",–,–,–,no binding
"Integrator subunit 7 (INTS7), Gal4 activation domain fusion (from UniProt Q9NVH2 1-962)",no binding,no binding,–,–
"Integrator subunit 13 (INTS13), full length, Gal4 fusion (from UniProt Q9NVM9-1 1-706)",–,–,–,binds
"Integrator subunit 3 (INTS3), Gal4 activation domain fusion (from UniProt Q68E01 1-1043)",no binding,no binding,–,–
"Integrator subunit 2 (INTS2), Gal4 activation domain fusion (from UniProt Q9H0H0 1-1196)",no binding,no binding,–,–
"Integrator subunit 4 (INTS4), Gal4 fusion (from UniProt Q96HW7 1-963)",–,no binding,–,–
"INTS13 amino acids 577-706, Gal4 activation domain fusion (from UniProt Q9NVM9-1 577-706) (domain or fragment)",–,–,–,binds
